{"source": "ChEMBL document CHEMBL4888484", "about": "“Replenishing the malaria drug discovery pipeline: Screening and hit evaluation of the MMV Hit Generation Library 1 (HGL1) against asexual blood stage Plasmodium falciparum ,using a nano luciferase reporter read-out” (2022)", "note": "About 540 (0.36%) of roughly 150,000 compounds showed an effect of 50% or more. The list shows a part of the results."}
{"test_system": "Plasmodium falciparum", "assay": "Primary screen in NF54 nanoGlo assay, in single point, at 2uM, 72h; a lower Z score goes with more inhibition", "assay_type": "functional, Erythrocyte", "conditions": "timepoint 72 hour", "units": {"% Inhibition": "%"}}
{"molecule": "Cc1nc(CNS(=O)(=O)Cc2cc(Cl)ccc2F)no1", "% Inhibition": -1, "Z score": 0.16}
{"molecule": "Cc1nc(-c2ccc3c(c2)n(CC(=O)NCc2ccc4c(c2)OCO4)c(=O)n3C(C)C)no1", "% Inhibition": -1, "Z score": 0.15}
{"molecule": "CC(C)CCn1nnnc1[C@]1(N(C)C)CCCN(C(=O)CN2CCOCC2)C1", "% Inhibition": 2, "Z score": -0.27}
{"molecule": "CC1CN(C(=O)c2ccc3ncn(C)c3n2)C(C)CN1C", "note": "(stereo unspecified)", "% Inhibition": 2, "Z score": -0.28}
{"molecule": "CC(C)(CCO)CNC[C@@H]1CC=CCC1", "% Inhibition": 2, "Z score": -0.4}
{"molecule": "COc1cccc(-c2cnc(C(F)(F)F)nc2C2CCN(C(=O)CCn3ccc(C)n3)CC2)c1", "% Inhibition": 8, "Z score": -1.06}
{"molecule": "CNc1snc(C)c1C(=O)N1CCN(c2cccc(OC)c2)CC1", "% Inhibition": 8, "Z score": -1.51}
{"molecule": "CCn1ccc2cc(S(=O)(=O)N3CCC[C@H](C(=O)NCc4cccc(F)c4)C3)ccc21", "% Inhibition": 1, "Z score": -0.16}
{"molecule": "CC(=O)N1CCN(C(=O)CCc2c(C)nn(C)c2C)CC1", "% Inhibition": 4, "Z score": -0.55}
{"molecule": "O=S(=O)(NCc1cccnc1)c1ccc2c(c1)-c1oncc1CO2", "% Inhibition": 2, "Z score": -0.28}
{"molecule": "CC(C)n1cc(Br)cc1C(=O)N(C)S(=O)(=O)C(C)C", "% Inhibition": 0, "Z score": -0.01}
{"molecule": "COC(=O)[C@H](CCOc1cccc(C#N)c1)NC(=O)OC(C)(C)C", "% Inhibition": 6, "Z score": -1.2}
{"molecule": "O=C(c1ccc(=O)n(Cc2ccc(Cl)cc2)c1)N1CCc2ccccc21", "% Inhibition": -12, "Z score": 1.44}
{"molecule": "Cc1ccc(S(=O)(=O)Nc2ccc(C)n(CC(=O)NC3CCCC3)c2=O)cc1", "% Inhibition": -16, "Z score": 2.13}
{"molecule": "COc1ccccc1[C@H]1CN(Cc2ncc(C)c(OC)c2C)C[C@@H]1C(=O)O", "% Inhibition": -12, "Z score": 1.66}
{"molecule": "Cn1cc2ccc(CNC(=O)c3ccc4c(c3)CCCC(=O)N4)cc2n1", "% Inhibition": -12, "Z score": 1.59}
{"molecule": "Cc1csc(CNC(=O)c2cc(C)c(C)s2)n1", "% Inhibition": -6, "Z score": 0.99}
{"molecule": "COc1ccc(C2CC(C)CN2S(=O)(=O)CC2(C#N)CC2)cc1", "note": "(stereo unspecified)", "% Inhibition": 5, "Z score": -0.66}
{"molecule": "O=C(c1cccc2c1NCCC2)N1CCn2nc([C@@H](O)C3CC3)cc2C1", "% Inhibition": -2, "Z score": 0.23}
{"molecule": "CCc1nnc(CN(C)C2CCN(c3cccc(-c4ccnc(C)n4)c3)CC2)o1", "% Inhibition": -14, "Z score": 2.06}
{"molecule": "CCCN(CC#N)C(=O)[C@@H]1CCCCN1C(C)=O", "% Inhibition": -9, "Z score": 1.53}
{"molecule": "C[C@H](Nc1ncccc1C#N)c1nnc(C(F)(F)F)[nH]1", "% Inhibition": -13, "Z score": 2.33}
{"molecule": "COc1ccc(OC)c2c1cc(C(=O)NCc1ccco1)n2C", "% Inhibition": 3, "Z score": -0.43}
{"molecule": "O=C1CN(C(=O)c2nn(CCCc3ccccc3)c3c2CN(Cc2c(F)cccc2F)CC3)CCN1", "% Inhibition": 1, "Z score": -0.16}
{"molecule": "CCCN1CCN(S(=O)(=O)c2cccc3nonc23)CC1", "% Inhibition": 33, "Z score": -0.42}
{"molecule": "CN1C(=O)[C@H](CC(=O)NCCCn2nccc2C2CC2)N(C)C1=O", "% Inhibition": -5, "Z score": 0.94}
{"molecule": "CC(C)c1ccn(C2(C(=O)O)CCN(C(=O)c3cccc(F)c3)CC2)n1", "% Inhibition": -8, "Z score": 1.4}
{"molecule": "CC(C)(C)NCCNC(=O)C(=O)Nc1cc(F)c(F)c(F)c1", "% Inhibition": -39, "Z score": 4.52}
{"molecule": "Cc1cc(-c2c(C)sc(C)c2S(=O)(=O)N2CCN(c3ccc(Cl)cc3)CC2)[nH]n1", "% Inhibition": -12, "Z score": 1.44}
{"molecule": "O=C1OCCN1Cc1nc(-c2cccc(CN3CCCCC3)c2)no1", "% Inhibition": -10, "Z score": 1.28}
{"molecule": "N[C@H]1CN(c2ccnc3c(C(F)(F)F)cccc23)C[C@@H]1C1CC1", "% Inhibition": -14, "Z score": 1.34}
{"molecule": "O=C(c1c[nH]nc1-c1ccccc1)N1CC(F)(F)C[C@H]1COc1ccccc1", "% Inhibition": -8, "Z score": 1.41}
{"molecule": "COc1ccnc(N(CCO)C(C)C)n1", "% Inhibition": 5, "Z score": -0.78}
{"molecule": "COc1ccc(-c2csc(N3N=C(C(C)C)C[C@]3(O)C(F)(F)F)n2)cc1", "% Inhibition": -33, "Z score": 3.89}
{"molecule": "COCOc1ccc(NC(=O)c2cc(-c3ccccc3C)nc3c2cnn3C(C)C)cc1", "% Inhibition": 8, "Z score": -1.13}
{"molecule": "O=S(=O)(N1CCCC1)N1CCC(n2cc(C3CCCC3)nn2)CC1", "% Inhibition": -15, "Z score": 2.29}
{"molecule": "CCCOc1c(Cl)cc(CN2CCCC3(C2)OCCO3)cc1OCC", "% Inhibition": -13, "Z score": 1.6}
{"molecule": "N#Cc1ccc(C(=O)N2C[C@@H]3C[C@H](C2)c2c(-c4ccc(OC(F)(F)F)cc4)ccc(=O)n2C3)cc1", "% Inhibition": -5, "Z score": 0.7}
{"molecule": "CCC(=O)N1CCN(C(=O)c2ccnc(OC)c2)[C@H]2CS(=O)(=O)C[C@H]21", "% Inhibition": -12, "Z score": 1.67}
{"molecule": "CC[C@@H](C(=O)NCc1ccccn1)n1c(Cc2c(Cl)cccc2Cl)nc2ccccc21", "% Inhibition": -7, "Z score": 1.02}
{"molecule": "COc1c[nH]c(C(=O)NCc2cccnc2N(C)C2CCCCC2)cc1=O", "% Inhibition": -9, "Z score": 1.71}
{"molecule": "COc1ccc2[nH]c([C@H]3CCN(CC4CC4)C3)nc2c1", "% Inhibition": 28, "Z score": -3.21}
{"molecule": "O=C(CCN1CCCC1=O)N[C@H]1CN(Cc2ccccn2)C[C@@H]1C1CC1", "% Inhibition": -6, "Z score": 1.03}
{"molecule": "COc1ccc(S(=O)(=O)NC(=N)N)cc1OC", "% Inhibition": -14, "Z score": 1.83}
{"molecule": "CCCC(=O)N1CCC[C@H](c2nnc(C(=O)Nc3cccc(F)c3)s2)C1", "% Inhibition": -3, "Z score": 0.44}
{"molecule": "Cc1nn(-c2ncnc3[nH]cnc23)c2c1[C@@H](c1ccc(O)cc1)CC(=O)N2", "% Inhibition": -12, "Z score": 1.38}
{"molecule": "C[C@H](NC(=O)Cc1cnccc1C(F)(F)F)c1ccc(Cl)cn1", "% Inhibition": 1, "Z score": -0.15}
{"molecule": "Cc1ccccc1S(=O)(=O)N1CCCC2(CCNCC2)CC1", "% Inhibition": 1, "Z score": -0.21}
{"molecule": "O=c1cc(N2CCOCC2)cnn1C[C@H]1CCCO1", "% Inhibition": 5, "Z score": -0.93}
{"molecule": "Cn1cc(CN(C(=O)CN2C(=O)COc3cccnc32)C2CCCCC2)cn1", "% Inhibition": -3, "Z score": 0.42}
{"molecule": "Cc1ccc(C2Nc3ccccc3C(=O)N2CC2CCCO2)s1", "note": "(stereo unspecified)", "% Inhibition": 14, "Z score": -1.61}
{"molecule": "c1cnc(N2CCN(c3nc4nonc4nc3N3CCCC3)CC2)cn1", "% Inhibition": -19, "Z score": 2.76}
{"molecule": "Cc1nn(C)c(NC(=O)c2ccc(Cl)cc2)c1C1=CCCCC1", "% Inhibition": 35, "Z score": -1.02}
{"molecule": "Cc1cccc(NS(=O)(=O)c2ccc3nncn3c2)c1", "% Inhibition": 37, "Z score": -5.33}
{"molecule": "COc1ccc(-c2noc(CCC(=O)NCc3nc(C)cs3)n2)cc1OC", "% Inhibition": -1, "Z score": 0.15}
{"molecule": "CCCCNc1cc(N2CCN(C[C@H]3CCOC3)CC2)nc(N)n1", "% Inhibition": -8, "Z score": 1.11}
{"molecule": "c1cc(NCc2cnc(C3CCC3)s2)cc(-n2cnnc2)c1", "% Inhibition": -2, "Z score": 0.34}
{"molecule": "CC(=O)c1ccc(N2CCN(C(=O)CCc3nc4ccccc4s3)CC2)cc1", "% Inhibition": -3, "Z score": 0.28}
{"molecule": "CN(C)c1ncccc1CNC(=N)Nc1ccccc1", "% Inhibition": 3, "Z score": -0.52}
{"molecule": "CC(C)c1ncc(CN(C)CC2CCCC2)cn1", "% Inhibition": -7, "Z score": 1.24}
{"molecule": "Cc1ccc(CN2CCNC(=O)[C@@H]2CC(=O)NC2Cc3ccccc3C2)o1", "% Inhibition": -7, "Z score": 1.05}
{"molecule": "O=C(Nc1cccc2[nH]nnc12)N1CCCCCC1", "% Inhibition": -2, "Z score": 0.34}
{"molecule": "CC(C)c1nn(C)c2sc(C(=O)N3CC(C)C(N(C)C)C3)cc12", "note": "(stereo unspecified)", "% Inhibition": -16, "Z score": 1.62}
{"molecule": "O=C(COC(=O)Cn1ccc(C(F)(F)F)n1)Nc1ccc2c(c1)OCCCO2", "% Inhibition": -13, "Z score": 2.48}
{"molecule": "CC1CCN(C[C@H]2CCCN(C(=O)c3ccc(F)cc3)CC2)CC1", "% Inhibition": -1, "Z score": 0.14}
{"molecule": "Cc1nnc(CN(C)Cc2cnnn2Cc2ccccc2)n1C", "% Inhibition": -7, "Z score": 1.21}
{"molecule": "Cc1cc(Br)c2c(c1)CN(c1ccc(C(N)=O)nn1)CC2", "% Inhibition": -16, "Z score": 1.55}
{"molecule": "COCCN1C(=O)c2ccccc2C(C(=O)NCC2COc3ccccc3O2)C1c1ccc(F)cc1", "note": "(stereo unspecified)", "% Inhibition": -6, "Z score": 0.91}
{"molecule": "CN(Cc1ccccc1)c1ncnc(Oc2ccc(F)cc2)c1N", "% Inhibition": 0, "Z score": -0.07}
{"molecule": "CC1COCC(C)N1C(=O)CCC1CCNCC1", "note": "(stereo unspecified)", "% Inhibition": -7, "Z score": 1.05}
{"molecule": "CCN(Cc1nc2ccccc2s1)C1CCN(C(C)c2ccccc2)C1", "note": "(stereo unspecified)", "% Inhibition": -13, "Z score": 1.41}
{"molecule": "COc1ccc(-c2cn3c(C(=O)N(C)[C@@H](C)c4ccon4)csc3n2)cc1F", "% Inhibition": -7, "Z score": 1.01}
{"molecule": "O=C(N[C@H]1C[C@H](c2ccc(F)cc2)C1)c1ccnnc1", "% Inhibition": 1, "Z score": -0.25}
{"molecule": "Cc1ccn(Cc2nc([C@@H](C)C3(C)CC3)no2)n1", "% Inhibition": 1, "Z score": -0.19}
{"molecule": "CCOc1ccc2c(c1)-c1c(ssc1=S)C(C)(C)N2C(=O)[C@H](Cc1ccccc1)N1C(=O)c2ccccc2C1=O", "% Inhibition": 0, "Z score": -0.05}
{"molecule": "CCN(CC)[C@@H](CNC(=O)N1CCC2(CC1)COC(=O)O2)c1ccco1", "% Inhibition": -8, "Z score": 1.55}
{"molecule": "CCOc1ccc(CC(=O)N2CCC3(CC2)C(=O)N(C)c2ccccc23)cc1", "% Inhibition": -8, "Z score": 1.33}
{"molecule": "CCc1[nH]c(-c2ccc(Cl)cc2)nc1C(=O)N1C[C@H]2OCCN(C)[C@H]2C1", "% Inhibition": -44, "Z score": 5.15}
{"molecule": "C[C@H]1CNCCN1C(=O)CCS(=O)(=O)c1ccc2c(c1)OCCCO2", "% Inhibition": -13, "Z score": 1.79}
{"molecule": "C1=CCC(Nc2ccc3nnc(C4CC4)n3n2)C1", "% Inhibition": -12, "Z score": 1.54}
{"molecule": "O=C(NCCC1CCCCCCC1)N1CCC[C@H](c2cc(O)ncn2)C1", "% Inhibition": -6, "Z score": 0.78}
{"molecule": "CCOc1ccc(-c2nc(Cn3c(=O)c4c(C)cc(C)nc4n(C)c3=O)c(C)o2)cc1OC", "% Inhibition": -10, "Z score": 1.35}
{"molecule": "CC[C@H](NC(=O)c1c(C)ncnc1C)c1ncnn1CC", "% Inhibition": -15, "Z score": 1.59}
